{"source": "PubChem BioAssay AID540317", "about": "(National Center for Advancing Translational Sciences (NCATS), 2011)", "note": "About 2,200 (0.56%) of roughly 390,000 compounds were called active. Inconclusive means that the source gave no clear call. Such entries were picked first, then a sample of the others. Calls come from the whole dose curve; as a rule, active = well fitted inhibition curve with a large enough effect; inconclusive = small, poorly fitted or top-dose-only effect; inactive = no such curve, though single readings can be large or run the other way. Potencies of inconclusive entries are doubtful fits and often do not repeat. Potency is the fitted concentration of half-maximal effect; tags give direction and shape of the fitted curve.", "data": [{"target": "Chromobox protein homolog 1 (Homo sapiens) (UniProt P83916)", "sequence (P83916 whole entry, looked up)": "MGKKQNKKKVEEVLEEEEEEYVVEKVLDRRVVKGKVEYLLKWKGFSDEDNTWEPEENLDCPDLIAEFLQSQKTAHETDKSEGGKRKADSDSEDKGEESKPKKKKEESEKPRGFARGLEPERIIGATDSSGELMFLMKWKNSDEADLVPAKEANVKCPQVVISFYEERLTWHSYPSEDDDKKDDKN", "experiment": "HTS for Inhibitors of HP1-beta Chromodomain Interactions with Methylated Histone Tails; note: nearly all actives have a fitted effect of over 70% in size", "conditions": "AlphaScreen HP1-beta / biotin-H3K9me3 peptide binding; series mostly up to 114 µM", "in_short": "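AlphaScreen: HP1-beta (50 nM) preformed 30 min with biotin-H3(1-18)K9me3 peptide (50 nM) in PBS pH 7.4, 0.01% Tween-20. Compound added for 30 min at RT, then streptavidin donor/nickel chelate acceptor beads (10 ug/mL) for 30 min.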", "values": [{"smiles": "Cc1cc(C)n(-c2ccc(C(=O)Nc3ccc(N4CCOCC4)cc3)cc2)n1", "Potency": "inactive"}, {"smiles": "CC1(C)Cc2c(sc(NC(=S)NC(=O)c3ccccc3)c2C(=O)O)CO1", "Potency": "inactive"}, {"smiles": "C/C(=N\\NC(=S)NCc1ccccc1)c1ccc(C)o1", "Potency": "inconclusive: 39.8 µM [inhibitor, partial curve]"}, {"smiles": "Cc1ccccc1OCC(=O)N(Cc1ccc(N(C)C)cc1)CC1CCCO1", "note": "(configuration not stated)", "Potency": "inconclusive: 20 µM [inhibitor, partial curve, poor fit]"}, {"smiles": "COc1ccc(C(OCC(O)CNCCc2ccccc2)c2ccc(OC)cc2)cc1", "note": "(configuration not stated)", "Potency": "inconclusive: 56.2 µM [inhibitor, partial curve, poor fit]"}, {"smiles": "O=C(N/N=C/c1ccsc1)c1cc2ccccc2o1", "Potency": "inactive"}, {"smiles": "COc1cccc(NC(=O)C2CCCN(c3nnc(-n4c(C)ccc4C)s3)C2)c1", "note": "(configuration not stated)", "Potency": "inactive"}, {"smiles": "Cc1cccc(C)c1OCC(=O)Nc1cc(Cl)ccc1-n1cncn1", "Potency": "inactive"}, {"smiles": "COc1ccc(/C(N)=N/OC(=O)c2ccco2)cc1OC", "Potency": "inconclusive: 39.8 µM [inhibitor, single point]"}, {"smiles": "CCOc1cc(-c2ccc3c(c2)OCO3)cc(=[O+]CC)c2c(C)oc(C)c12", "Potency": "inconclusive: 35.5 µM [inhibitor, partial curve, poor fit]"}, {"smiles": "O=C(O)c1ccc(N/N=C/c2ccc(OC(=O)c3cccc(Cl)c3)cc2)cc1", "Potency": "inconclusive: 79.4 µM [inhibitor, single point]"}, {"smiles": "Cc1cc(C(=O)NNC(=S)NCc2ccco2)n(C)n1", "Potency": "inconclusive: 22.4 µM [inhibitor, single point]"}, {"smiles": "N#Cc1nc(-c2ccco2)oc1N1CCN(c2ccccc2)CC1", "Potency": "inconclusive: 25.1 µM [inhibitor, partial curve, poor fit]"}, {"smiles": "COc1cc(CNCc2cccc(OC)c2OC)cc(OC)c1", "Potency": "inconclusive: 15.8 µM [inhibitor, partial curve]"}, {"smiles": "COc1ccc(-c2[nH]ncc2N=Nc2ccccc2)cc1", "Potency": "inconclusive: 15.8 µM [inhibitor, full curve]"}, {"smiles": "O=C(Nc1cccc([N+](=O)[O-])c1)Nc1ccc2c(c1)CCC2", "Potency": "inactive"}, {"smiles": "CCOC(=O)N1CCN(Cc2c(F)cccc2Cl)CC1", "Potency": "inconclusive: 39.8 µM [inhibitor, partial curve]"}, {"smiles": "COc1ccc(S(=O)(=O)/N=C2/C=CC(=O)C(C)=C2C)cc1", "Potency": "inconclusive: 56.2 µM [inhibitor, partial curve, poor fit]"}, {"smiles": "COc1ccc(/C=N/N2CCN(C3c4ccccc4-c4ccccc43)CC2)cc1O", "Potency": "inconclusive: 22.4 µM [inhibitor, partial curve, poor fit]"}, {"smiles": "CC1(C)CC(=O)C=C(Nc2ccc(C(=O)O)c(O)c2)C1", "Potency": "inactive"}, {"smiles": "N#CC1=C(N)OC2=C(CC/C2=C\\c2ccccc2)C1c1ccccc1", "note": "(configuration not stated)", "Potency": "inconclusive: 39.8 µM [inhibitor, full curve]"}, {"smiles": "CCCC(c1nnnn1Cc1cccs1)N1CCN(c2ccc(OC)cc2)CC1", "note": "(configuration not stated)", "Potency": "inconclusive: 39.8 µM [inhibitor, partial curve, poor fit]"}, {"smiles": "CCc1ccc(-c2csc(-c3cc4cc(Br)ccc4oc3=O)n2)cc1", "Potency": "inactive"}, {"smiles": "O=C(/C=C/c1ccco1)NC(=S)Nc1cccc(C(=O)O)c1", "Potency": "active: 20 µM"}, {"smiles": "CCOc1cc(/C=C2\\C(=O)N(CCc3ccc(OC)c(OC)c3)C(C)=C2C(=O)OC)ccc1O", "Potency": "inconclusive: 25.1 µM [inhibitor, full curve, poor fit]"}, {"smiles": "CCOC(=O)C[C@H]1c2cc(F)ccc2S(=O)(=O)N1C1CCCCC1", "Potency": "inactive"}, {"smiles": "Cc1cccc(Nc2nnc(SCC(=O)Nc3ccccc3[N+](=O)[O-])s2)c1", "Potency": "inactive"}, {"smiles": "C=CCCC(=O)Nc1nc(C)c(-c2csc(Nc3ccc(Cl)cc3)n2)s1", "Potency": "inconclusive: 44.7 µM [inhibitor, partial curve, poor fit]"}, {"smiles": "O=C1C2CC(O)CN2C(=S)N1Cc1ccccc1", "note": "(configuration not stated)", "Potency": "inconclusive: 79.4 µM [inhibitor, partial curve]"}, {"smiles": "Cn1nc(SCC(=O)O)sc1=S", "Potency": "inactive"}, {"smiles": "Cc1ccoc1C(=O)N1CCCCC1C(=O)O", "note": "(configuration not stated)", "Potency": "inconclusive: 11.2 µM [inhibitor, partial curve, poor fit]"}, {"smiles": "CSc1nc(-c2ccc(C)cc2)nc(N)c1C#N", "Potency": "inactive"}, {"smiles": "Cc1ccc(NC(=O)CN2C(=O)S/C(=C\\c3ccc(OCC(=O)O)c(Br)c3)C2=O)cc1", "Potency": "inconclusive: 70.8 µM [inhibitor, partial curve]"}, {"smiles": "C=CCc1ccc(OCCOc2cccc3ccc(C)nc23)c(OC)c1", "Potency": "inconclusive: 17.8 µM [inhibitor, full curve, poor fit]"}, {"smiles": "CCn1nc(-c2ccccc2C)nc2c(=O)n(C)c(=O)nc1-2", "Potency": "inactive"}, {"smiles": "Cc1ccc(-c2cnc(NCc3ccc(C(F)(F)F)cc3)n2C)cc1", "Potency": "inconclusive: 14.1 µM [inhibitor, full curve, poor fit]"}, {"smiles": "COc1ccc(Cl)cc1NC(=O)c1c(NCc2sccc2C)sc2c1CCCC2", "Potency": "inconclusive: 3.16 µM [inhibitor, full curve, poor fit]"}, {"smiles": "CC1(C(O)(C#CC[N+]2(C)CCCCC2)c2ccccc2)CCCC1", "note": "(configuration not stated)", "Potency": "inconclusive: 70.8 µM [inhibitor, partial curve]"}, {"smiles": "COCCn1c(SCc2ccc(F)cc2)nc2c1c(=O)[nH]c(=O)n2C", "Potency": "inconclusive: 25.1 µM [inhibitor, single point]"}, {"smiles": "CCOC(=O)C(CC)(CC)C(=O)/C=C/c1cccc(Br)c1", "Potency": "inactive"}, {"smiles": "O=S(=O)(CCOc1ccccc1)c1nc2ccccc2[nH]1", "Potency": "inactive"}, {"smiles": "CC1CCN(C(c2ccc(N(C)C)cc2)c2nnnn2C(C)(C)C)CC1", "note": "(configuration not stated)", "Potency": "inconclusive: 70.8 µM [inhibitor, single point]"}, {"smiles": "CC(C)c1cnc2c(c1SCC(=O)NCc1ccccc1)c(=O)n(C)c(=O)n2C", "Potency": "inactive"}, {"smiles": "CC(=O)N(C)c1ccc(N2CCOCC2)c2c1C(=O)c1ccccc1C2=O", "Potency": "inconclusive: 70.8 µM [inhibitor, partial curve]"}, {"smiles": "COc1cccc(/C=N/N2CCN(c3ccncc3S(=O)(=O)N3CCCCC3)CC2)c1", "Potency": "inconclusive: 22.4 µM [inhibitor, full curve, poor fit]"}, {"smiles": "Brc1ccc(CN2CCN(c3ccccc3)CC2)o1", "Potency": "inconclusive: 56.2 µM [inhibitor, single point]"}, {"smiles": "O=[N+]([O-])c1ccccc1CN1CCN(c2ncccn2)CC1", "Potency": "inconclusive: 35.5 µM [inhibitor, partial curve]"}, {"smiles": "CC1(C)C2CCC(C2)C1(C)NC(=O)CN1CCOCC1", "note": "(configuration not stated)", "Potency": "inconclusive: 44.7 µM [inhibitor, partial curve, poor fit]"}, {"smiles": "O=C(CNCCN1CCOCC1)Nc1ccccc1Sc1ccccc1", "Potency": "inconclusive: 15.8 µM [inhibitor, full curve]"}, {"smiles": "COc1ccc(NC(=O)C(=O)NCC(c2cccnc2)N2CCc3ccccc3C2)cc1", "note": "(configuration not stated)", "Potency": "inconclusive: 39.8 µM [inhibitor, partial curve]"}, {"smiles": "Cc1cc(OCCN2CC(C)OC(C)C2)ccc1[N+](=O)[O-]", "note": "(configuration not stated)", "Potency": "inconclusive: 15.8 µM [inhibitor, full curve]"}, {"smiles": "CC(=O)N1CCC(N(Cc2ccco2)C(=O)Nc2ccc(Br)cc2F)CC1", "Potency": "inactive"}, {"smiles": "CC(C)c1ccc(N(CC(=O)NC2CCCCC2)C(=O)CCC(=O)Nc2ccccn2)cc1", "Potency": "inactive"}, {"smiles": "CC1=CC(=O)C(C(C)C)=CC1=NC(=O)c1ccc(C)cc1", "Potency": "active: 22.4 µM"}, {"smiles": "COc1ccc(/C=N/n2c(-c3cc(C)[nH]n3)n[nH]c2=S)cc1", "Potency": "inconclusive: 89.1 µM [inhibitor, single point]"}, {"smiles": "Cc1[nH]n(C(N)=S)c(=O)c1N=Nc1cc(-c2ccc(Br)cc2)[nH]n1", "Potency": "inconclusive: 25.1 µM [inhibitor, full curve]"}, {"smiles": "O=C(NCC(c1ccco1)N1CCc2ccccc21)c1ccccc1F", "note": "(configuration not stated)", "Potency": "inconclusive: 70.8 µM [inhibitor, partial curve]"}, {"smiles": "COc1ccc(-n2c(-c3ccccc3)cc3c2CCCC3=O)cc1", "Potency": "inconclusive: 56.2 µM [inhibitor, single point]"}, {"smiles": "Cn1c(-c2ccc(S(=O)(=O)N3CCCC3)cc2)csc1=Nc1ccc(Cl)c(Cl)c1", "Potency": "inconclusive: 10 µM [inhibitor, full curve, poor fit]"}, {"smiles": "COc1ccc(N2CC(NC(=O)Nc3ccccc3)CC2=O)cc1", "note": "(configuration not stated)", "Potency": "inactive"}, {"smiles": "CCOc1ccccc1Nc1sc(C(=O)c2ccc(Cl)cc2)c(N)c1C(=O)NCCc1ccccc1", "Potency": "inactive"}, {"smiles": "NNC(=O)c1[nH]c2ccc(Cl)cc2c1-c1ccccc1", "Potency": "inactive"}, {"smiles": "O=S(=O)(c1ccc(Cl)c(C(F)(F)F)c1)N1CCN(CC(O)COc2ccccc2F)CC1", "note": "(configuration not stated)", "Potency": "inconclusive: 22.4 µM [inhibitor, full curve]"}, {"smiles": "COc1cc2c(cc1OC)/C(=C/C(=O)c1cccc([N+](=O)[O-])c1)NCC2", "Potency": "inconclusive: 44.7 µM [inhibitor, partial curve]"}, {"smiles": "CCn1c(=S)sc2c(=O)n(CC(=O)Nc3ccc(OC)c(Cl)c3)c(C)nc21", "Potency": "inactive"}, {"smiles": "COc1ccc(NC(=O)C2CCN(C(=O)c3cccs3)CC2)c(OC)c1", "Potency": "inconclusive: 3.16 µM [inhibitor, full curve]"}, {"smiles": "Nc1cccn2c(-c3ccc(Cl)cc3)cnc12", "Potency": "inconclusive: 31.6 µM [inhibitor, full curve]"}, {"smiles": "Cc1cc(C)c(S(=O)(=O)N2CCN(C3CC(=O)N(c4ccccc4Cl)C3=O)CC2)c(C)c1", "note": "(configuration not stated)", "Potency": "inactive"}, {"smiles": "O=C(NCc1ccco1)c1ccc(C(=O)NCc2ccco2)cc1", "Potency": "inactive"}, {"smiles": "Oc1cccc(/C=N/c2c(-c3ccco3)nc3ccccn23)c1", "Potency": "inconclusive: 56.2 µM [inhibitor, single point]"}, {"smiles": "COc1ccc2c(c1)C(NC(C)=O)C(=O)N2C", "note": "(configuration not stated)", "Potency": "inactive"}, {"smiles": "COc1ccc(CCNCC(O)COc2c(C)cccc2C)cc1OC", "note": "(configuration not stated)", "Potency": "inconclusive: 63.1 µM [inhibitor, single point]"}]}]}
